Over roughly 33,000 sequences, “E-score (-0.5 to 0.5)” has its median near -0.035; the highest 2% begin near 0.34. The list shows a part of the results.
Biological target: T1, Mot3 (UniProt P54785)
T1 sequence: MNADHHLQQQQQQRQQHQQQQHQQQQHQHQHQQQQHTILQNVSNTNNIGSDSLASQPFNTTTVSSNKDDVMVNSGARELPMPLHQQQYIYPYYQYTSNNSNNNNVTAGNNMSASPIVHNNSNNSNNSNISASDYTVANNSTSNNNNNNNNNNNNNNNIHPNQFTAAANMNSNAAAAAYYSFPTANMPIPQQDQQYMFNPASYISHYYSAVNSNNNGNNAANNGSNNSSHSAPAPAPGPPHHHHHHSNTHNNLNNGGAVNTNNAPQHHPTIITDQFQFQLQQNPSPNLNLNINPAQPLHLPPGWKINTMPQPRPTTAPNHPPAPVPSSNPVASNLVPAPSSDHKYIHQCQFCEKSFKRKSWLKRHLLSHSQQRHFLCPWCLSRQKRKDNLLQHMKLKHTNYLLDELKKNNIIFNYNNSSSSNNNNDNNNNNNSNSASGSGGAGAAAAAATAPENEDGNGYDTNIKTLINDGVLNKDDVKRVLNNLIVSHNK
Experiment: PBM E-score (8-mer binding enrichment) (E-score (-0.5 to 0.5)); higher = stronger / more preferred TF binding; most listed sequences are background and not binding sites
Conditions: protein concentration: 200 nM; construct: GST-full length
Description: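 Universal 'all 10-mer' protein binding microarrays (Agilent AMADID 015681) probed with GST-tagged S. cerevisiae TFs (full-length or DBD) made by in vitro transcription/translation (PURExpress), about 100-200 nM. Bound TF was detected with fluorescent anti-GST. Each ungapped 8-mer (which stands for itself and its reverse complement) is scored by the PBM enrichment score (E-score), a modified Wilcoxon-Mann-Whitney statistic from -0.5 to +0.5, computed with the Universal PBM Analysis Suite. Scale: above 0.35 generally sequence-specific binding.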

Sequence | PBM E-score
AGTCTCGG | -0.218
AAGGCTCT | 0.0737
CACTCACC | -0.329
AGAAGAAT | -0.0765
AGTCCCCC | -0.337
ATGTCCCC | -0.00319
CCTTTGGA | -0.0863
ATTACTTC | 0.0432
AAATGAAT | -0.00475
AGATAATA | -0.00575
CGTTCCTA | 0.455
AAAGCGCC | -0.00599
GAGGTGCA | -0.167
AGAGAAAT | -0.113
AAACGTGG | -0.0479
AGCCCTAA | 0.0699
ACACACGA | 0.233
CTATCCAC | -0.0235
CGACTATA | 0.0875
ATACTGCA | -0.0239
CGCCACTC | -0.204
CAGATCAG | 0.0568
ACTGGATC | -0.101
AGTCTCCA | -0.122
CTCCGCGA | -0.237

Sequence | PBM E-score
CGCTCGCC | -0.179
CCATTGCC | 0.0862
CCGATGAG | -0.0549
CCGAATCC | -0.201
GGTGTGTA | 0.335
GCTCAAGA | -0.223
CTGTATTC | 0.185
TTGGCAAA | 0.113
CTAGTCAA | -0.134
GGGTAGAC | -0.292
CGGCCAAG | -0.286
ACCATGAT | -0.223
ATCTCACC | -0.234
ACATCCTC | -0.00332
ACCTTGAC | 0.133
TAATGGCA | -0.0937
CTCTTGCA | 0.104
ACGAACTC | 0.117
ATATGTCG | 0.203
AGTCACTG | -0.00455
GGCTGGAC | -0.391
CTCCTTAA | -0.126
ATTTAAAC | 0.18
AATATACA | 0.26
GGTGGTGA | -0.179

Sequence | PBM E-score
CGTGTTCA | 0.273
TAACCTTA | -0.00018
ACGCTAAT | -0.168
CAGGACGG | -0.134
ATCTCAAT | -0.00731
ACAGTGCT | -0.0624
ACACCCTA | -0.0334
AAGCAACC | 0.00898
AGTTGAAG | -0.0916
CCGCAGCC | -0.315
CACATAAC | 0.126
CCGTTCGC | -0.27
AACTGACG | -0.21
AGAGCGCT | -0.213
ATCCGACG | -0.0689
AACACATC | 0.244
GGTTACTA | 0.0652
CGCGCATA | 0.0137
AGGAACCG | 0.442
CACGCGAC | 0.00358
GGACGGTA | -0.237
AGGACGAT | 0.0143
GCCTGTCA | 0.183
CCTCTGGA | -0.162
ACATAAGG | 0.273

Sequence | PBM E-score
ATCGGAAT | 0.0793
ACCTTACA | 0.236
CCGCACGC | -0.216
CCCTTGTC | -0.034
GGAGATAA | -0.0459
ATAGTGCC | 0.261
AAGCAATG | -0.0928
CCTTTAAA | 0.266
GCGACGAA | -0.154
ACGTAAAA | 0.329
AAGAGATT | 0.0716
TAAGGCTA | 0.129
TATTAGGA | 0.142
ATCGGCCC | -0.265
AAACAGAA | -0.0905
CCTCACTA | -0.0744
CTTCCAGA | -0.146
CTCATACA | 0.0711
CGGCGTAA | 0.104
AATTCCAA | 0.0626
CCCTCGCA | -0.283
GGTCAAAC | 0.0509
GCAACTGA | 0.0162
GCTCAGAA | -0.0723
GTCGGAAC | -0.147

Sequence | PBM E-score
ACACGCAG | 0.313
GGGATAAA | 0.0287
GCTCCTAA | 0.118
AGGATCCC | -0.108
GCATCCGC | -0.0154
ACGCCTGC | 0.253
ACTTTAAG | -0.0466
CCTTTTGC | 0.0699
ACCTGAGT | -0.00423
CGACCTTC | -0.346
AGGCCTTC | -0.154
ACTGGCAG | -0.0433
GATCTCGA | -0.123
AGATACAG | 0.0787
GCATGTGA | 0.232
CGACAGCA | -0.178
GTCGCATA | 0.0611
GACATGCA | 0.203
ATGGGTCG | -0.251
TGATATAA | 0.0684
ACTGCTTG | 0.0373
ACTACAGA | 0.0825
ATCCCCTG | -0.332
CGTCAGTA | -0.27
AAAACGAG | 0.0748

Sequence | PBM E-score
AGGTTTAA | -0.00778
CCGGCGAG | -0.369
GAGGGAGC | -0.142
TAGGGAGA | -0.28
AGGCGTGC | 0.122
AGACTATC | -0.0723
ATTCAGTG | -0.0973
ACAGTAGG | 0.134
AGCGCACG | 0.00399
AAGCCATC | -0.0287
ATGCTGAA | -0.0335
GTCATCAC | -0.171
AATATTAG | 0.15
GCCTCTCC | -0.175
GAACACAA | 0.256
ATCGCGCA | -0.109
CACGTCCA | -0.0793
AGACCTGA | -0.139
TCCTTAGA | -0.0361
CAGCCGAC | -0.121
ATTAGTTA | 0.115
AGACAAAT | 0.0163
CTTCGCTA | -0.0461
TCAGAGAA | -0.0316
AGGCTAAG | -0.266

Sequence | PBM E-score
CGATTACC | -0.0307
CATATAAG | 0.0246
ACCGTATC | -0.348
CGTGAACC | -0.136
CTAATGCC | -0.174
GGTATCGA | -0.093
ACCTCACG | 0.00143
AGAGGATG | -0.136
AACACAGG | 0.275
GTAACAAA | 0.167
CACTGACC | -0.14
CTCTCAAC | -0.0574
GCCTCTTA | -0.0795
CTTCGGTA | -0.201
AGTTCGAA | 0.0616
GCTGTGCC | 0.249
CCAATAAG | 0.00438
GAGCTACC | -0.0489
GTATCCGA | -0.0401
CCACGGAA | -0.101
GAAGTCGC | -0.052
ACGCCTTA | 0.185
